According to paper PMC3901934:
Results are given in words; binding and its absence hold for the method and conditions named. In cells and extracts the contact can be indirect. Some entries that bind do so weakly or less than the wild type. For some assays here: Sequences can lack the tags named with a protein.

T1: GFP–CAS WT (full-length CAS tagged with GFP) (UniProt Q61140)
T1 sequence: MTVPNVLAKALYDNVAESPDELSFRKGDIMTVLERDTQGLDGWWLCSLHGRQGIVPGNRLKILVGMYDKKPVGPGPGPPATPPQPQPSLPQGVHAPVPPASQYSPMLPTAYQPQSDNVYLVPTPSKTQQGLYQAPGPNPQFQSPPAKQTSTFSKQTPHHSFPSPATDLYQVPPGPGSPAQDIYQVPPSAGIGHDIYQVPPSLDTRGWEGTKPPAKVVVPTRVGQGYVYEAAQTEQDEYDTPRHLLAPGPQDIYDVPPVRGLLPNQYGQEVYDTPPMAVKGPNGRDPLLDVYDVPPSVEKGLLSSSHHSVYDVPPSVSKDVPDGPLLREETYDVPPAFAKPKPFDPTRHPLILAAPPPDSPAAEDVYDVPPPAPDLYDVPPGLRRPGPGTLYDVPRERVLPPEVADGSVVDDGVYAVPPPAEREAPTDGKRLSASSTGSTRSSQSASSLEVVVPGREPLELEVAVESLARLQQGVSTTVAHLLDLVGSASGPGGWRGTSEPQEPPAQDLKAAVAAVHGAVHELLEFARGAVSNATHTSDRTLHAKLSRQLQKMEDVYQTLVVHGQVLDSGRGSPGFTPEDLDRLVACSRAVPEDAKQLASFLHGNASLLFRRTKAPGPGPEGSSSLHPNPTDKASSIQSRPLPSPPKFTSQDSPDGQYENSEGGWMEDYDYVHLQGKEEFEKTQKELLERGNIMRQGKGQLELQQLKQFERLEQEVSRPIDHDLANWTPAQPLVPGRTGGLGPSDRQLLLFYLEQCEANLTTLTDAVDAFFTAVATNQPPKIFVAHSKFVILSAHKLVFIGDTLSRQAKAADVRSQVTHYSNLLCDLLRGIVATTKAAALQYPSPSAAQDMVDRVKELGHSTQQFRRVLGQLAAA

T2: GFP–CAS Y12E (full-length CAS tagged with GFP) (UniProt Q61140)
T2 sequence: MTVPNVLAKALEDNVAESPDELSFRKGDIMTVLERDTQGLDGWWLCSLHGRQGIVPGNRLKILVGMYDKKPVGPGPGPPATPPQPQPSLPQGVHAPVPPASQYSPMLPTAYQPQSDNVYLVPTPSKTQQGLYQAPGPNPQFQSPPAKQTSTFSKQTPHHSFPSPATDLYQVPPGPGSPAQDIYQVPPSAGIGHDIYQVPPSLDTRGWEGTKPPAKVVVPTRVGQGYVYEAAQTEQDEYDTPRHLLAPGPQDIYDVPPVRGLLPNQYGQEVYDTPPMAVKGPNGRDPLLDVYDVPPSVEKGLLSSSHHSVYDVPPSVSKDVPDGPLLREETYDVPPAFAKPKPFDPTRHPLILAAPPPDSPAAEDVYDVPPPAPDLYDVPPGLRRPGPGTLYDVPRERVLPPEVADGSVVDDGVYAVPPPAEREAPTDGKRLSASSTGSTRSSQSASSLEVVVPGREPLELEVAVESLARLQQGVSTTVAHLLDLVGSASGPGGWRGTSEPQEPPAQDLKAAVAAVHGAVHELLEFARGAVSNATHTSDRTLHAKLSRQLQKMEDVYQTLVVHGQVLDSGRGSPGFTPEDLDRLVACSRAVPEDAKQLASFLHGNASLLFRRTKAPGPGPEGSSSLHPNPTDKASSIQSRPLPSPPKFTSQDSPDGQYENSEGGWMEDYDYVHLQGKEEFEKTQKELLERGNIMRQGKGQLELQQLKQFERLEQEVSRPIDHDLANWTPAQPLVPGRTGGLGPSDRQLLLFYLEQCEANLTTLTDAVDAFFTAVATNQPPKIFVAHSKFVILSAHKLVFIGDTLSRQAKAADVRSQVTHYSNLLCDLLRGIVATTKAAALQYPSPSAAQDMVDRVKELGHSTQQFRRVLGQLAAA

T3: GFP–CAS Y12F (full-length CAS tagged with GFP) (UniProt Q61140)
T3 sequence: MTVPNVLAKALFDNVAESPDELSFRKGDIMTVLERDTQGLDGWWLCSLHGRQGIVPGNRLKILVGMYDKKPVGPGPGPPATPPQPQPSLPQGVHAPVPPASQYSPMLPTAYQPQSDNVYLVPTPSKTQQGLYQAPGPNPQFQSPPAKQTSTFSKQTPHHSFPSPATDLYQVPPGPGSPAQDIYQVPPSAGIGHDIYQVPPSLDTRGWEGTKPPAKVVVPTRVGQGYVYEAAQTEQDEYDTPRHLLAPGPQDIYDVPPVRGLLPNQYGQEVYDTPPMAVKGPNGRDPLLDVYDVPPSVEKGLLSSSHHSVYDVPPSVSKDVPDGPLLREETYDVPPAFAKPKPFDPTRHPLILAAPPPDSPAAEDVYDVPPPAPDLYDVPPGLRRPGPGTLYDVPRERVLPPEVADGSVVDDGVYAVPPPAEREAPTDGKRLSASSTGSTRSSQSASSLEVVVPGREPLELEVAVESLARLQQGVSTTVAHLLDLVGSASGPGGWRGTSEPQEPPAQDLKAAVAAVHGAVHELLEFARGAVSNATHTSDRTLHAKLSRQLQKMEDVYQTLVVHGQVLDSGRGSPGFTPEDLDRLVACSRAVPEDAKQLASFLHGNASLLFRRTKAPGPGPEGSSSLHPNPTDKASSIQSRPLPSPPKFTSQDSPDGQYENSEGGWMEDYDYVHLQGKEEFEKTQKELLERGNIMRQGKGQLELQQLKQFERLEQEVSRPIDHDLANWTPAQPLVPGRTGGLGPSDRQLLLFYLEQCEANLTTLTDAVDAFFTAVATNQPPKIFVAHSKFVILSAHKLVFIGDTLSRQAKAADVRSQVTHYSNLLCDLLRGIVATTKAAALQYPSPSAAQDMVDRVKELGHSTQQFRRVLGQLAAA

T4: Vin PNSS GFP (GFP-fused vinculin with PKPP in the proline-rich region changed to PNSS) (UniProt Q64727)
T4 sequence: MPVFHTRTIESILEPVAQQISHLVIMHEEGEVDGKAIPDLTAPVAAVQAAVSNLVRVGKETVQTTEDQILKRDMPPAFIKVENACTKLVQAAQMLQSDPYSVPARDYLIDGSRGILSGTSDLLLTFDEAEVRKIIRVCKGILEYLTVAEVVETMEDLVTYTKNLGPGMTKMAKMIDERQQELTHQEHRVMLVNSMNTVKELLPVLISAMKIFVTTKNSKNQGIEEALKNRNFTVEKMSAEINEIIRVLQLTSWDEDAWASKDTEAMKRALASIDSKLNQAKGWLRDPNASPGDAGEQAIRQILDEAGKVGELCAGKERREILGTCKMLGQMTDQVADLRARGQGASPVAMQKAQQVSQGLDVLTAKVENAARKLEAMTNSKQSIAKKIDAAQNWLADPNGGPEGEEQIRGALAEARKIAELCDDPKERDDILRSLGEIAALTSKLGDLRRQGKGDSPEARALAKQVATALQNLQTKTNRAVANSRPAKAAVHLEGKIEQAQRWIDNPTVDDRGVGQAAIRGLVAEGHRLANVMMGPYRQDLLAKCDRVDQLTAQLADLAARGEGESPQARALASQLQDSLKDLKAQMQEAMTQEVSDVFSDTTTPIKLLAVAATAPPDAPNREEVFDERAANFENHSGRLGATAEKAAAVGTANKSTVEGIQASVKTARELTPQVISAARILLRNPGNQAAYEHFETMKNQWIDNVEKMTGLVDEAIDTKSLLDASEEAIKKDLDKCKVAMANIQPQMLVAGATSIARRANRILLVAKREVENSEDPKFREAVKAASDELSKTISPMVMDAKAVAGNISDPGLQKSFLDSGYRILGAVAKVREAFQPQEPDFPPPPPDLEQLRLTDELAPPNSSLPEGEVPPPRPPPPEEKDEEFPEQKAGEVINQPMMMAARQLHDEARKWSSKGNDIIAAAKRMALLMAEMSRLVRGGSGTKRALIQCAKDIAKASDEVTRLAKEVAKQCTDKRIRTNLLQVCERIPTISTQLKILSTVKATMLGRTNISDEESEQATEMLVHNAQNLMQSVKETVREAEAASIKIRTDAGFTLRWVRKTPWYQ


How the values were obtained:
[1] = target: T1, GFP–CAS WT (full-length CAS tagged with GFP); test: co-IP; GFP-CAS immunoprecipitated with anti-GFP from CAS-/- MEFs expressing CAS Y12 variants (Fig. 1b) and from FAK-/- MEFs (Fig. 1c); NP-40 lysis buffer; blot with vinculin antibody
[2] = target: T2, GFP–CAS Y12E (full-length CAS tagged with GFP); test: as above
[3] = target: T3, GFP–CAS Y12F (full-length CAS tagged with GFP); test: as above
[4] = target: T4, Vin PNSS GFP (GFP-fused vinculin with PKPP in the proline-rich region changed to PNSS); test: co-IP; GFP vinculin (WT or PNSS) immunoprecipitated with anti-GFP from Vin-/- MEFs; NP-40 lysis buffer; blots with CAS, paxillin and Arp2 antibodies
[5] = target: Vin WT GFP (GFP-fused vinculin WT) (UniProt Q64727); test: as above

| binding [1] | binding [2] | binding [3] | binding [4] | binding [5] | Binder |
| --- | --- | --- | --- | --- | --- |
| binds | no binding | binds | – | – | vinculin (endogenous in CAS-/- and FAK-/- MEFs) (protein, UniProt Q64727 1-1066) MPVFHTRTIESILEPVAQQISHLVIMHEEGEVDGKAIPDLTAPVAAVQAAVSNLVRVGKETVQTTEDQILKRDMPPAFIKVENACTKLVQAAQMLQSDPYSVPARDYLIDGSRGILSGTSDLLLTFDEAEVRKIIRVCKGILEYLTVAEVVETMEDLVTYTKNLGPGMTKMAKMIDERQQELTHQEHRVMLVNSMNTVKELLPVLISAMKIFVTTKNSKNQGIEEALKNRNFTVEKMSAEINEIIRVLQLTSWDEDAWASKDTEAMKRALASIDSKLNQAKGWLRDPNASPGDAGEQAIRQILDEAGKVGELCAGKERREILGTCKMLGQMTDQVADLRARGQGASPVAMQKAQQVSQGLDVLTAKVENAARKLEAMTNSKQSIAKKIDAAQNWLADPNGGPEGEEQIRGALAEARKIAELCDDPKERDDILRSLGEIAALTSKLGDLRRQGKGDSPEARALAKQVATALQNLQTKTNRAVANSRPAKAAVHLEGKIEQAQRWIDNPTVDDRGVGQAAIRGLVAEGHRLANVMMGPYRQDLLAKCDRVDQLTAQLADLAARGEGESPQARALASQLQDSLKDLKAQMQEAMTQEVSDVFSDTTTPIKLLAVAATAPPDAPNREEVFDERAANFENHSGRLGATAEKAAAVGTANKSTVEGIQASVKTARELTPQVISAARILLRNPGNQAAYEHFETMKNQWIDNVEKMTGLVDEAIDTKSLLDASEEAIKKDLDKCKVAMANIQPQMLVAGATSIARRANRILLVAKREVENSEDPKFREAVKAASDELSKTISPMVMDAKAVAGNISDPGLQKSFLDSGYRILGAVAKVREAFQPQEPDFPPPPPDLEQLRLTDELAPPKPPLPEGEVPPPRPPPPEEKDEEFPEQKAGEVINQPMMMAARQLHDEARKWSSKGNDIIAAAKRMALLMAEMSRLVRGGSGTKRALIQCAKDIAKASDEVTRLAKEVAKQCTDKRIRTNLLQVCERIPTISTQLKILSTVKATMLGRTNISDEESEQATEMLVHNAQNLMQSVKETVREAEAASIKIRTDAGFTLRWVRKTPWYQ |
| – | – | – | no binding | binds | full-length CAS (in Vin-/- MEFs) (protein, UniProt Q61140 1-874) MTVPNVLAKALYDNVAESPDELSFRKGDIMTVLERDTQGLDGWWLCSLHGRQGIVPGNRLKILVGMYDKKPVGPGPGPPATPPQPQPSLPQGVHAPVPPASQYSPMLPTAYQPQSDNVYLVPTPSKTQQGLYQAPGPNPQFQSPPAKQTSTFSKQTPHHSFPSPATDLYQVPPGPGSPAQDIYQVPPSAGIGHDIYQVPPSLDTRGWEGTKPPAKVVVPTRVGQGYVYEAAQTEQDEYDTPRHLLAPGPQDIYDVPPVRGLLPNQYGQEVYDTPPMAVKGPNGRDPLLDVYDVPPSVEKGLLSSSHHSVYDVPPSVSKDVPDGPLLREETYDVPPAFAKPKPFDPTRHPLILAAPPPDSPAAEDVYDVPPPAPDLYDVPPGLRRPGPGTLYDVPRERVLPPEVADGSVVDDGVYAVPPPAEREAPTDGKRLSASSTGSTRSSQSASSLEVVVPGREPLELEVAVESLARLQQGVSTTVAHLLDLVGSASGPGGWRGTSEPQEPPAQDLKAAVAAVHGAVHELLEFARGAVSNATHTSDRTLHAKLSRQLQKMEDVYQTLVVHGQVLDSGRGSPGFTPEDLDRLVACSRAVPEDAKQLASFLHGNASLLFRRTKAPGPGPEGSSSLHPNPTDKASSIQSRPLPSPPKFTSQDSPDGQYENSEGGWMEDYDYVHLQGKEEFEKTQKELLERGNIMRQGKGQLELQQLKQFERLEQEVSRPIDHDLANWTPAQPLVPGRTGGLGPSDRQLLLFYLEQCEANLTTLTDAVDAFFTAVATNQPPKIFVAHSKFVILSAHKLVFIGDTLSRQAKAADVRSQVTHYSNLLCDLLRGIVATTKAAALQYPSPSAAQDMVDRVKELGHSTQQFRRVLGQLAAA |
